# Measurements as given in PubChem BioAssay AID1461 (National Center for Advancing Translational Sciences (NCATS), 2008).
# The campaign covered roughly 220,000 compounds. About 2,300 (1%) were called active. The inconclusive results got no clear call from the source; some entries with a clear call stand among them for comparison. Calls come from the whole dose curve; as a rule, active = well fitted inhibition curve with a large enough effect; inconclusive = small, poorly fitted or top-dose-only effect, or effect the other way; inactive = no such curve, though single readings can be large or run the other way. No potency is given beside an inconclusive call; the fits are too rough.
# Target: Neuropeptide S receptor (Homo sapiens) (UniProt Q6W5P4)
# UniProt Q6W5P4, sequence (Q6W5P4 whole entry, looked up): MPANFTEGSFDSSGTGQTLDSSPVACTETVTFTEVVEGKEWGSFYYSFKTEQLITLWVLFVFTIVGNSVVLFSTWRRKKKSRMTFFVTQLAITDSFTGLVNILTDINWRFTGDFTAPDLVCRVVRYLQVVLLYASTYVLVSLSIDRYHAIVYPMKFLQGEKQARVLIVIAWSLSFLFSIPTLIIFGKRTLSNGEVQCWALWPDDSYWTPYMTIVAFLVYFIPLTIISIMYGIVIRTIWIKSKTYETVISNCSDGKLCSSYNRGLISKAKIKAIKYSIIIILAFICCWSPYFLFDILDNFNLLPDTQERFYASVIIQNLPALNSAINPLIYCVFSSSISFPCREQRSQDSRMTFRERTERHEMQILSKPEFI
# Test: qHTS Assay for Antagonists of the Neuropeptide S Receptor: cAMP Signal Transduction; note: nearly all actives have a fitted effect of over 50% in size
# Settings: CHO-NPSR cells, cAMP TR-FRET, antagonist mode; activity change, negative = inhibition: at 38.3 µM (top of the series) unless noted
# % is set by controls: 0 for no effect and ±100 for the full control effect; potency is the fitted concentration of half-maximal effect; tags give direction and shape of the fitted curve.
SMILES,"activity change, negative = inhibition",Potency
COc1ccc(Cn2c(O)c(/C=N/NC(=O)c3cccnc3)c3ccccc3c2=O)cc1,inactive: -22.7%,
O=C(c1ccccc1)N1CCN(c2ccc([N+](=O)[O-])c(NCc3cccnc3)c2)CC1,,"inconclusive [activator, full curve]"
COc1ccc2c(c1)CC/C(=C\c1ccc(OC)c(Cn3nc(C)cc3C)c1)C2=O,,"inconclusive [inhibitor, partial curve]"
N/C(=N\OC(=O)/C=C/c1ccccc1Cl)c1cccnc1,,"inconclusive [inhibitor, single point]"
COc1ccc(/C=C/CN2CCCC(CO)(Cc3cccc(Cl)c3)C2)cc1 (stereo unspecified),,"inconclusive [activator, partial curve]"
O=c1c2ccccc2nc(SCc2nnc(-c3ccccc3)o2)n1-c1ccccc1,,"inconclusive [inhibitor, partial curve, poor fit]"
CCOC(=O)Cc1nnc(NC(=O)CSc2nnc3c4ccccc4n(C(C)C)c3n2)s1,inactive: 5.2% [at 46.1 µM],
CCOC(=O)c1c(CSc2ccccc2)oc2cc(Br)c(O)c(CN(C)C)c12,,"inconclusive [inhibitor, single point]"
O=S(=O)(N/N=C1/CC(c2ccccc2)Oc2ccccc21)c1ccc(Br)cc1 (stereo unspecified),,"inconclusive [inhibitor, single point]"
CCOC(=O)c1[nH]c2cc(OC)c(OC)cc2c1N,,"inconclusive [inhibitor, partial curve, poor fit]"
Nc1nc(Nc2ccccc2)nc2ccccc12,inactive: 21.7% [at 46.1 µM],
CCCCN(CCCC)C(=O)CSc1nnc(-c2cc(OC)c(OC)c(OC)c2)o1,,"inconclusive [inhibitor, partial curve]"
Cc1csc(Nc2ccccc2C(F)(F)F)n1,,"inconclusive [activator, partial curve]"
O=C(O)c1ccc2c(=O)n3c(nc2c1)/C(=C/c1ccccc1C(F)(F)F)CCCC3,,"inconclusive [inhibitor, partial curve, poor fit]"
CCCc1cc(-c2[nH]ncc2-c2ccc3c(c2)OCCCO3)c(O)cc1OC,,"inconclusive [inhibitor, single point]"
COc1ccc(OC)c(C(=O)Cn2nnc3ccccc3c2=O)c1,,"inconclusive [inhibitor, single point]"
c1ccc(Nc2nc(N3CCCCC3)nc(N3CCCCC3)n2)cc1,,"inconclusive [inhibitor, single point]"
COc1cc(C2c3c(-c4cc(C)cc(C)c4O)n[nH]c3C(=O)N2CCCO)cc(OC)c1OC (stereo unspecified),,"inconclusive [inhibitor, partial curve, poor fit]"
Clc1ccc(-c2nn3c(-c4ccccc4)nnc3s2)cc1,,"inconclusive [inhibitor, single point]"
O=C(N/N=C/c1cccc(F)c1)c1csc2c1CCCC2,,"inconclusive [inhibitor, single point]"
NS(=O)(=O)c1ccc(NC(=O)CN2C(=O)CCC2=O)cc1,inactive: 12.2%,
CCCCSc1nc(O)c(C2OC(=O)c3c2ccc(OC)c3OC)c(=O)n1-c1ccccc1 (stereo unspecified),,"inconclusive [inhibitor, single point]"

SMILES,"activity change, negative = inhibition",Potency
CCc1nnc(NS(=O)(=O)c2ccc(NC(=S)NC(=O)c3cccs3)cc2)s1,inactive: 27.6%,
O=C(CCCn1c(=O)[nH]c2cc(Cl)ccc2c1=O)NCCC1=CCCCC1,,"inconclusive [activator, single point]"
C(=N\Nc1nc2ccccc2[nH]1)/c1cccs1,,"inconclusive [inhibitor, single point]"
O=C(NCc1ccco1)C1CC(c2cc(C(F)(F)F)cc(C(F)(F)F)c2)=NO1 (stereo unspecified),inactive: 14.6%,
CCC(=O)NC(c1ccc([N+](=O)[O-])cc1)c1c(O)ccc2ccccc12 (stereo unspecified),,"inconclusive [inhibitor, partial curve, poor fit]"
Cc1ccc2[nH]c(=O)c(CN(Cc3ccco3)S(=O)(=O)c3c(C)ccc4nsnc34)cc2c1,,"inconclusive [inhibitor, single point]"
CCOC(=O)c1c(NC(=S)Nc2ccccc2)sc2c1CCCCC2,,"inconclusive [inhibitor, single point]"
CC1=CC(C)(C)Nc2ccc(OC(=O)CN3C(=O)c4ccccc4C3=O)cc21,,active: 7.94 µM
Cc1ccc(-c2nn(-c3ccccc3)cc2/C=N/NS(=O)(=O)c2ccccc2)cc1,,"inconclusive [inhibitor, partial curve]"
CC(=O)NC(=O)NC1CSCC1OC(C)=O (stereo unspecified),,"inconclusive [inhibitor, single point]"
O=C(Nc1ccc2c(c1)C(=O)N(CC1CCCO1)C2=O)c1ccc(Cl)c(Cl)c1 (stereo unspecified),,"inconclusive [inhibitor, single point]"
CCN(CC)CCNCC(O)(c1ccc(Cl)cc1)c1ccc(Cl)cc1,,"inconclusive [inhibitor, single point]"
COc1ccc(NS(=O)(=O)c2cc(NC(=O)C3CC3)ccc2N2CCCCC2)cc1,,active: 12.6 µM
O=C(NNc1c2ccccc2nc2ccccc12)c1ccc(O)cc1,inactive: -14.2%,
COc1cc(N2CCCC2)c(OC)cc1/C=C(/C#N)c1cccc(F)c1,,"inconclusive [inhibitor, single point]"
CN(C)C(=S)N=Nc1[nH]c2ccccc2c1O,,"inconclusive [inhibitor, full curve, poor fit]"
CCOc1ccccc1NC(=O)Cc1coc2cc(C)ccc12,,"inconclusive [inhibitor, single point]"
COc1ccc2nc3oc(C(=O)N4CCN(c5cccc(Cl)c5)CC4)cc3cc2c1,inactive: -16.3% [at 46.1 µM],
CC(C)N(C(=O)CSc1nc2ccccc2n1-c1ccccc1)C(C)C,,"inconclusive [inhibitor, single point]"
CN(C)c1ccnc(Oc2ccc(C(C)(C)C)cc2)c1C#N,,"inconclusive [inhibitor, partial curve, poor fit]"
Cc1cc(C)n2[nH]c(=O)c(N=Nc3ccccc3)c2n1,,"inconclusive [inhibitor, partial curve, poor fit]"
COc1ccc(OC)c(-c2cc(C(=O)N3CCc4ccccc4C3)no2)c1,,"inconclusive [inhibitor, single point]"

SMILES,"activity change, negative = inhibition",Potency
CCOc1cc(CNc2ccc(O)cc2)cc(Br)c1OCc1ccccc1F,,"inconclusive [inhibitor, partial curve, poor fit]"
O=C(/C(=C/O)N=Nc1ccccc1)c1ccncc1,,"inconclusive [inhibitor, partial curve]"
CC1=CC(C)(C)N(C(=O)C(C)N2C(=O)c3ccccc3C2=O)c2ccc(C)cc21 (stereo unspecified),,"inconclusive [inhibitor, single point]"
O=S1(=O)CC=C(CSc2nc3ccccc3[nH]2)C1,,"inconclusive [inhibitor, single point]"
CCCC(=O)OCCNc1cc(Sc2nc3ccccc3[nH]2)c2nonc2c1[N+](=O)[O-],,"inconclusive [inhibitor, single point]"
COc1ccc(-c2nnc(NC(=O)c3cccs3)s2)c(OC)c1,,"inconclusive [activator, single point]"
Cn1c(SCC(=O)Nc2ccc3nc(SCC(=O)N4CCCC4)sc3c2)nnc1-c1ccccc1,inactive: -9.21% [at 46.1 µM],
COc1ccc(-c2nnc(N3CCC(C)CC3)c3ccccc23)cc1,,"inconclusive [inhibitor, partial curve]"
COc1cc(/C=C2\SC(=S)N(Nc3ncc(C(F)(F)F)cc3Cl)C2=O)cc(OC)c1OC,,"inconclusive [inhibitor, single point]"
O=C(c1ccco1)N1CCN(C(c2ccccc2Cl)c2nnnn2Cc2cccs2)CC1 (stereo unspecified),,"inconclusive [inhibitor, single point]"
CCOC(=O)c1cnc(-n2[nH]c(C)cc2=O)[nH]c1=O,inactive: 4.98%,
O=C(Nc1ccccc1N1CCN(c2ccc(F)cc2)CC1)C1CCCCC1,,"inconclusive [inhibitor, partial curve]"
COc1cc(OC)c(CNC2CCCCCC2)cc1Br,inactive: -18.3%,
Cn1c(SCC(=O)Nc2ccc3cn[nH]c3c2)nnc1-c1cnccn1,inactive: -23.2% [at 46.1 µM],
NC(=S)NNc1cccc2cccnc12,,"inconclusive [activator, single point]"
COc1ccc(-c2nc(N)ncc2Oc2ccccc2Br)c(O)c1,,"inconclusive [inhibitor, single point]"
COC(=O)Cn1c(=NC(=O)c2sc3ccccc3c2Cl)sc2cc(S(N)(=O)=O)ccc21,inactive: -6.83%,
CCCn1c(SCC(=O)N2c3ccccc3Sc3ccccc32)nc2c1c(=O)n(C)c(=O)n2C,,"inconclusive [inhibitor, partial curve, poor fit]"
O=C(CN1CCOCC1)Nc1ccc(NC(=O)CN2CCOCC2)c(Cl)c1,,"inconclusive [inhibitor, partial curve]"
COc1ccc(/C=C/c2nc3cc(-c4ccccc4)ccc3o2)cc1O,,"inconclusive [inhibitor, single point]"
CC1CCCC(C)N1C(=O)c1cc(-c2ccc(Cl)c(Cl)c2)on1 (stereo unspecified),,"inconclusive [inhibitor, single point]"
CCOC(=O)C1=C(C)N=C2c3ccccc3C(=O)C2C1c1ccc(Cl)cc1 (stereo unspecified),,"inconclusive [inhibitor, partial curve]"
